Data: the supplement of paper PMC5499739
In all, about 16,000 sequences were measured (“Z-score”: median about -0.37, highest 2% from about 3.1 on). This is one part of the list.

tested on: RBM10 RRM1-ZnF-RRM2 (GST-tagged construct); assay: RNAcompete 7-mer binding Z-score; higher = stronger binding preference
Description: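 RNAcompete: 20 pmol GST-tagged RBM10 RNA-binding constructs were incubated with a designed RNA pool of about 241,000 sequences up to 41 nt (1.5 nmol) on glutathione beads for 30 min at 4 °C and washed. Bound RNAs were identified by microarray hybridisation. Each RNA 7-mer is scored by a one-sided Z-score of its enrichment, computed over probes that contain the 7-mer within longer pool sequences.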

Sequence | RNAcompete 7-mer binding Z-score
UCGGCUU | -0.679
CUAUAUG | -0.526
GAACGAA | 0.359
UCCUGCA | -0.686
AAUACAA | -0.267
UGUAAGC | -0.216
UUAAACC | -0.639
CGAUGGA | 1.31
ACAGUCU | -0.792
UCCAUGA | -0.402
GGUCGUU | 0.403
ACUGGUC | -0.398
UAUGCAU | -0.26
UCCCUGA | -0.788
CGACUUU | -0.832
ACGUGAA | -0.0525
GAUUCAC | -0.479
GACGUGA | 0.421
CUCCAUA | -0.755
GUGUCAG | 0.366
AUUUCGU | -0.632
UUUGUGU | -0.362
CCUGGGG | 0.618

Sequence | RNAcompete 7-mer binding Z-score
GCGGGCA | 2.22
GAGCGGA | 3.55
UAACACU | -0.621
GCAGAUU | -0.125
AUGUAGC | 0.0277
CCGUCUA | -0.752
CUGGGCC | -0.176
CACCGGG | 0.654
CGUUACA | -0.307
CUUGGGU | 0.763
UAAUGAA | -0.133
AGUGGUG | 2.24
CACUGGG | 1.31
ACCGGCA | -0.133
UUUCUCA | -0.788
AAAAGUU | -0.3
UGAGAGC | 0.457
GACCAUU | -0.766
CCGCCUC | -0.792
UUUAACC | -0.77
GUCAUGC | -0.453
UAUUGGU | 0.516
AUAUAUG | 0.0349

Sequence | RNAcompete 7-mer binding Z-score
CACACUA | -0.581
CACAGUC | -0.453
UGCAUGA | -0.165
CUCCAUC | -0.839
GGAUUGG | 3.28
GUAUCGC | -0.125
AAAUAGA | 0.359
ACGCGCG | -0.176
AGGGAGA | 2.67
GCUGAGC | 0.0277
GUACUGC | -0.205
CAUCUUU | -0.868
CCUAUGC | -0.788
AAAGGGA | 4.13
AGGCCGA | -0.027
CGCACCU | -0.635
AUGCAAC | -0.133
CGUCAGC | -0.555
UGUCACA | -0.588
AAUCAGG | 1.32
UAAACAU | -0.508
GCGUUAC | 0.00944
UGCUGGG | 1.16

Sequence | RNAcompete 7-mer binding Z-score
GGCAUAU | 0.468
ACCUCUG | -0.814
CUAUUGG | -0.428
AAUAAAA | -0.409
CGCUCGA | -0.621
CAACAUC | -0.493
CUGGUCC | -0.515
CGGUCUA | -0.49
UCGCACC | -0.726
GGGUCAA | 1.82
CGCCCCG | -0.61
AGAGUCC | -0.533
UGGUUUA | 0.574
GCACGGC | 0.184
UCUUCUA | -0.781
UGGGCCG | 1.11
UAAGGGG | 3.11
GACCCAA | -0.788
UGUAAUU | -0.526
CGCUUCA | -0.697
AUUACUA | -0.522
AAGGCGA | 2.56
AAAUGGA | 3.34

Sequence | RNAcompete 7-mer binding Z-score
GCUGAUU | -0.391
ACCUGUU | -1.07
GCUUUCA | -0.759
GCGUCUU | -0.581
UAACAGA | 0.0896
GAGUAGA | 1.4
GUGGUGG | 3.78
AACGGUC | -0.0415
AUAAGUC | -0.402
AGCAUAA | -0.202
GGAGUAA | 1.3
UUUCGUA | -0.599
UGUCCUG | -0.686
UGCACUG | -0.154
UCCUAGG | -0.264
AGUGAGC | 0.731
AGGCUAA | 0.202
GCUCCUA | -0.879
AUUGCCA | -0.766
GACUAGU | -0.227
UACACCA | -0.449
CAAAAGC | -0.369
CUUCCGA | -0.836

Sequence | RNAcompete 7-mer binding Z-score
GCCCUAG | -0.511
GUAGCUC | -0.267
ACAGGCU | 0.392
CCCUUCA | -0.868
GGAUACU | 0.672
UGGCAGC | 0.803
AGCCGCA | -0.42
CAUGUGU | -0.151
CGGCGCU | -0.435
ACACCUU | -0.814
ACCGGAC | -0.235
AAGCACC | -0.566
CGAAUGG | 1.4
AUAUAGU | -0.235
CUCGCAG | -0.333
UAACGGU | 0.45
AGCUUCG | -0.795
UGUUAUA | -0.486
AUCACAU | -0.522
CCAAUAG | -0.0816
ACUCGUA | -0.606
GGGGUUG | 3.23
CUUAGGC | -0.428

Sequence | RNAcompete 7-mer binding Z-score
UAAGGAU | 1.55
GACUUGG | 0.385
AUGGCUC | -0.453
UAAAUCU | -0.744
GGAGUGG | 4.61
GCCUAGC | -0.803
AAGAGUC | -0.027
AAUUGUC | -0.701
AGAUUCC | -0.741
AAUCACC | -0.464
UCGUGAC | -0.541
AAUCAGC | -0.482
CAAGUUU | -0.77
AUGUUUU | -0.624
GUCCAAA | -0.424
CCAUAAA | -0.657
GGCACAG | 1.15
GAAUAAC | -0.151
UAAUUGA | -0.395
UCAAAGU | -0.395
CUGCUAG | -0.766
CAGCGUA | -0.158
CACGGGC | 0.541

Sequence | RNAcompete 7-mer binding Z-score
CGGUGAC | 0.308
AAGUACG | 0.0786
CUGUCUA | -0.857
ACGCGAA | -0.249
UUUUUGA | -0.479
UUAGAUG | 0.0677
AGGAAUG | 2.07
UAAAAUA | -0.482
UCGGUUU | -0.318
AUGCUAC | -0.555
GGCUCGC | -0.307
AGAUACG | 0.221
GUUUGCA | -0.318
GACUACC | -0.741
CCUGACA | -0.712
UACACUU | -0.522
UAACAAA | -0.238
CCUUGAU | -0.781
UGAGCUG | 0.337
GGAGGGC | 3.27
UCGGUGG | 1.56
UUACCUU | -0.843
CCGGUUA | -0.369
